PubChem BioAssay AID686978 (National Center for Advancing Translational Sciences (NCATS), 2013)
Among all 420,000 compounds or so, about 64,000 (15%) were called active. Inconclusive means that the source gave no clear call. Such entries were picked first, then a sample of the others. Calls come from the whole dose curve; as a rule, active = well fitted inhibition curve with a large enough effect; inconclusive = small, poorly fitted or top-dose-only effect; inactive = flat fitted curve, though single readings scatter. Potencies of inconclusive entries are left out as doubtful fits.
% is set by controls: 0 for no effect and ±100 for the full control effect; potency is the fitted concentration of half-maximal effect; tags give direction and shape of the fitted curve.

Assay: qHTS for Inhibitors of human tyrosyl-DNA phosphodiesterase 1 (TDP1): qHTS in cells in absence of CPT; note: nearly all actives have a fitted effect of over 55% in size
Conditions: DT40 Tdp1-/- hTDP1 cells, no CPT, ATP luminescence, 48 h; activity change, negative = growth inhibition: at 46.2 µM (top of the series) unless noted
Procedure, shortened: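 Stably hTDP1-transfected Tdp1-null chicken DT40 cells were treated with library compounds minus camptothecin and grown for at least 48 hr at 37 °C, after which cellular ATP was quantified by luminescence.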
For `COc1ccccc1C(=O)N1CCCC(c2nc(SCCN3CCOCC3)ncc2C)C1` (configuration not stated), the Potency was inconclusive [inhibitor, single point]. In the case of `c1ccc(-c2cc3c(NCC4COc5ccccc5O4)ncnc3s2)cc1` (configuration not stated), the Potency is reported as inconclusive [inhibitor, single point]. With `O=C(CN(c1ccc(Cl)cc1)S(=O)(=O)c1ccc(Cl)c([N+](=O)[O-])c1)NCCc1ccccc1` the Potency was inconclusive [inhibitor, partial curve, poor fit]. In the case of `CO/N=C(\Cn1ncc(N2CCCC2)c(Cl)c1=O)c1ccc(Cl)cc1`, the Potency is reported as active: 23.1 µM. With `CCCc1c(C(=O)Nc2ccc(F)cc2C)cnn1-c1ccccc1` the Potency was inconclusive [inhibitor, partial curve]. In the case of `Cc1cc2nc(CCN(C(=S)NCC3CCCO3)C3CCCC3)[nH]c2cc1C` (configuration not stated), the Potency is reported as inconclusive [inhibitor, single point]. With `COc1cccc(NC(=O)c2oc3ccc(S(=O)(=O)N4CCCCCC4)cc3c2C)c1` the Potency was active: 18.4 µM. With `C[C@H]1CN([C@@H](C)CO)C(=O)c2cccc(NC(=O)Nc3ccc(C(F)(F)F)cc3)c2O[C@H]1CN(C)C` the Potency was inconclusive [inhibitor, single point]. With `CCN(CC(=O)Nc1ccc(NC(C)=O)cc1)C(=O)C(c1ccccc1)c1ccccc1` the Potency was inconclusive [inhibitor, single point]. With `O=C1NC[C@H](CCCCN2C[C@H](Cc3ccccc3)N(CCc3ccccc3)C(=O)C2=O)N(CCC2CCCCC2)C1=O` the Potency was inconclusive [inhibitor, single point]. With `COc1ccc(CC(=O)Nc2sc3c(c2C(N)=O)CCCC3)cc1` the Potency was inconclusive [inhibitor, partial curve]. With `C=CCNC(=O)Nc1ccc(Br)cc1Cl` the Potency was inconclusive [inhibitor, single point]. For `C=C1CCN(Cc2ccccc2)S(=O)(=O)c2ccccc21`, the “activity change, negative = growth inhibition” value was inactive: -8.62%. For `CCOc1ccc(S(=O)(=O)N2CCC(c3ccncc3)CC2)cc1`, the Potency was inconclusive [inhibitor, single point]. For `CN(C)S(=O)(=O)c1ccc(C(=O)NCc2nnc(SCC(=O)NCc3ccco3)o2)cc1`, the “activity change, negative = growth inhibition” value was inactive: -6.48%. For `Cc1ccc(S(=O)(=O)NCc2cccnc2)cc1C`, the “activity change, negative = growth inhibition” value was inactive: -14.1%. With `Cc1cccc(NCc2nnc(-c3ccccc3)o2)c1C` the Potency was inconclusive [inhibitor, single point]. In the case of `COc1cccc(NC(=O)CN(c2cccc(OC)c2)S(C)(=O)=O)c1`, the Potency is reported as inconclusive [inhibitor, single point]. In the case of `O=C(Cc1ccc(NC(=O)C2CCCN(C(=O)CCc3ccccc3)C2)cc1)Nc1ccc(C(=O)N2CCOCC2)cc1` (configuration not stated), the Potency is reported as active: 18.4 µM. For `COc1ccc(OC(=O)CN2C(=O)C3C4CCC(C4)C3C2=O)cc1` (configuration not stated), the Potency was inconclusive [inhibitor, single point]. In the case of `C#CCOCCOCCOCCNc1nc(N2CCN(C(=O)CCCCCCCCCCNC(=O)[C@H](CCCCN)n3cc(CCO)nn3)CC2)nc(N2CCN(C(=O)CCCCCCCCCCNC(=O)[C@H](CCCN=C(N)N)n3cc(C[C@@H](C)CC)nn3)CC2)n1`, the Potency is reported as inconclusive [inhibitor, single point]. For `Cc1cc(C)n(-c2nc(C)c(C)c(=O)n2CC(=O)Nc2cccc([N+](=O)[O-])c2)n1`, the Potency was active: 16.4 µM. In the case of `CCOC(=O)c1ccc(NC(=O)Cn2c3ncccc3c(=O)n2-c2ccc(C)c(C)c2)cc1`, the Potency is reported as inconclusive [inhibitor, single point]. In the case of `CCOc1ccc(N(C(=O)/C=C/C(=O)Nc2cc(C)on2)C(C(=O)NC2CCCC2)c2ccccc2C)cc1` (configuration not stated), the Potency is reported as active: 16.4 µM. With `CCC(C)NC(=O)c1c(C)oc2nc(C)nc(N3CCOCC3)c12` (configuration not stated) the “activity change, negative = growth inhibition” value was inactive: 0.729%. In the case of `COc1ccc(N2CCN(C(CNC(=O)c3ccco3)c3cccnc3)CC2)cc1` (configuration not stated), the Potency is reported as inconclusive [inhibitor, single point]. For `CCO[C@@H]1OC(C(N)=O)=C[C@H](c2ccc(C(F)(F)F)cc2)[C@H]1CCCO`, the “activity change, negative = growth inhibition” value was inactive: -16.6%. With `COc1cccc(NC(=O)C2CCN(S(=O)(=O)c3ccc4[nH]c5c(c4c3)CCCCC5)CC2)c1` the Potency was inconclusive [inhibitor, single point]. In the case of `COc1c(F)cccc1C1=CC(=O)C[C@H](c2ccc3c(c2)OCO3)C1`, the Potency is reported as inconclusive [inhibitor, partial curve]. For `CC(=O)c1cc2c(cc1NC(=O)c1cc3nc(C(C)C)cc(C(F)(F)F)n3n1)OCO2`, the Potency was inconclusive [inhibitor, partial curve]. With `NC(=NCCc1ccccc1)NS(=O)(=O)c1ccc2ccccc2c1` the “activity change, negative = growth inhibition” value was inactive: 2.95%. For `O=C(NCCCc1ccccc1)c1cc(COc2c(F)cccc2F)on1`, the “activity change, negative = growth inhibition” value was inactive: -0.395%. For `CCCNC(=O)N1[C@H](c2cccs2)[C@@H](C)C(=O)[C@@H](C)[C@@H]1c1cccs1`, the Potency was inconclusive [inhibitor, single point]. For `O=C(Nc1ccc(N2CCCCC2)cc1)c1ccc(F)cc1`, the Potency was inconclusive [inhibitor, full curve]. In the case of `O=C(COC(=O)c1cccs1)NCCCc1ccccc1`, the “activity change, negative = growth inhibition” value is reported as inactive: 0.0836%. For `COc1cccc(N2CCN(c3ncnc4c3c(-c3ccccc3)cn4-c3cccc(C(F)(F)F)c3)CC2)c1`, the Potency was inconclusive [inhibitor, partial curve]. With `CCN(CC)C(=O)Cn1c(=O)n(CCc2ccccc2)c(=O)c2ccccc21` the activity change, negative = growth inhibition was inconclusive: -30.9% [inhibitor]. In the case of `S=C(NCc1ccc(Cl)cc1)NCc1ccccn1`, the “activity change, negative = growth inhibition” value is reported as inactive: 23.6%. With `COc1ccc(-c2ccc3c(c2)S(=O)(=O)c2cccc(C(=O)N4CCN(c5ccccn5)CC4)c2C3=O)cc1OC` the Potency was active: 14.6 µM. For `O=C(CNC(=O)c1cccc(F)c1)N/N=C/c1ccc([N+](=O)[O-])s1`, the Potency was active: 5.8 µM. In the case of `COc1cc(/C=C/C(=O)OCC(=O)Nc2cc(S(=O)(=O)N3CCCC3)ccc2Cl)cc(OC)c1OC`, the Potency is reported as inconclusive [inhibitor, partial curve]. In the case of `CC(C)CNc1ncnc2nc[nH]c12`, the Potency is reported as inconclusive [inhibitor, single point]. In the case of `Cc1ccnc(Nc2nc(-c3ccc(O)c(O)c3)cs2)c1`, the Potency is reported as active: 3.26 µM. With `O=C(CN1CCN(C(c2ccccc2)c2ccccc2)CC1)NC(=O)NCc1ccco1` the Potency was inconclusive [inhibitor, single point]. For `O=C(CCCCCN1C(=O)[C@@H]2Cc3ccccc3CN2C1=O)Nc1ccccc1F`, the Potency was inconclusive [inhibitor, single point]. With `COc1cccc(CN2CC(C(=O)NCCc3ccccc3C(F)(F)F)CCC2=O)c1` (configuration not stated) the “activity change, negative = growth inhibition” value was inactive: 5.5%. In the case of `COc1ccc(OC)c(NC(=O)N2CC3CCCN3c3ccccc32)c1` (configuration not stated), the Potency is reported as active: 23.1 µM. In the case of `CCOc1ccc2nc(/N=C/c3c(C)[nH]n(-c4ccc(C)cc4)c3=O)sc2c1`, the Potency is reported as inconclusive [inhibitor, single point]. For `COC(=O)c1cc(NC(=O)Cn2c(=O)oc3ccccc32)cc(C(=O)OC)c1`, the “activity change, negative = growth inhibition” value was inactive: -13.2%. For `CCOC(=O)c1cccc(NC(=O)N2CC=C(c3c[nH]c4ccccc34)CC2)c1`, the Potency was active: 20.6 µM. For `O=C(CC1NCCc2ccccc21)Nc1ccc(Oc2ccccc2)cc1` (configuration not stated), the Potency was inconclusive [inhibitor, single point]. In the case of `COc1ccc(NC(=O)c2cc([N+](=O)[O-])ccc2NC(=O)CNC2CCCCC2C)c(OC)c1` (configuration not stated), the Potency is reported as inconclusive [inhibitor, single point]. With `Cc1ccc(SCCC(=O)OC(C)C(=O)Nc2ccccc2)cc1` (configuration not stated) the Potency was inconclusive [inhibitor, single point]. In the case of `COCCNc1oc(-c2ccc(OC)cc2)nc1C#N`, the “activity change, negative = growth inhibition” value is reported as inactive: -25.6%. With `CCOC(=O)C1(CCOC)CCN(Cc2cnc(-c3cccc(C)c3)nc2)CC1` the Potency was active: 16.4 µM. In the case of `CC(=O)c1ccc(NC(=O)CC2Oc3ccc(C)cc3NC2=O)cc1` (configuration not stated), the “activity change, negative = growth inhibition” value is reported as inactive: -28.6%. With `O=C(CSc1nnnn1-c1ccc2c(c1)OCCO2)Nc1nc2c(s1)CCCC2` the Potency was inconclusive [inhibitor, single point]. For `CC1CCc2c(c3ccccc3n2C(=O)CCl)C1` (configuration not stated), the Potency was inconclusive [inhibitor, single point]. In the case of `CCC1(c2ccc(F)cc2)NC(=O)N(CC(=O)N2c3ccccc3CC2C)C1=O` (configuration not stated), the Potency is reported as inconclusive [inhibitor, single point]. With `O=C1N/C(=C\c2ccc(O)cc2)C(=O)c2ccccc21` the Potency was active: 7.08 µM. With `CCOC(=O)c1ccccc1NC(=O)COC(=O)CC(C)(C)CC1=NS(=O)(=O)c2ccccc2N1` the Potency was inconclusive [inhibitor, partial curve, poor fit]. In the case of `COc1ccc(/C=C2\CCCC3C2=NC(=S)NC3c2ccc(OC)cc2)cc1` (configuration not stated), the activity change, negative = growth inhibition is reported as inconclusive: -33.6% [inhibitor]. For `COc1cc(O)cc2cc3c(c(O)c12)C(=O)CC(C)(O)O3` (configuration not stated), the Potency was inconclusive [inhibitor, partial curve]. In the case of `CCN(CC)c1ccc(N)cc1`, the Potency is reported as active: 1.64 µM. In the case of `O=C1CCCCC(=O)[C@H](OC(=O)c2ccccc2)C[C@H](c2ccccc2)O1`, the activity change, negative = growth inhibition is reported as inconclusive: -33.1% [inhibitor]. In the case of `O=C(Cc1cccc2ccccc12)Nc1ccccc1`, the activity change, negative = growth inhibition is reported as inconclusive: -33.1% [inhibitor]. In the case of `Cc1ccc(C)c(N2CCN(C(=O)c3cc(S(=O)(=O)N4CCOCC4)cn3C)CC2)c1`, the Potency is reported as inconclusive [inhibitor, single point].
